From publication PMC8254046
These are yes or no findings as the source states them, for the method shown. In cells and extracts the contact can be indirect. Some binding calls cover weakened binding; strength is not graded here. Each block holds one substance with its values, some of them ahead of it.

By UniProt entry, the sequences of proteins in these tests, tags left out.
UniProt P35240: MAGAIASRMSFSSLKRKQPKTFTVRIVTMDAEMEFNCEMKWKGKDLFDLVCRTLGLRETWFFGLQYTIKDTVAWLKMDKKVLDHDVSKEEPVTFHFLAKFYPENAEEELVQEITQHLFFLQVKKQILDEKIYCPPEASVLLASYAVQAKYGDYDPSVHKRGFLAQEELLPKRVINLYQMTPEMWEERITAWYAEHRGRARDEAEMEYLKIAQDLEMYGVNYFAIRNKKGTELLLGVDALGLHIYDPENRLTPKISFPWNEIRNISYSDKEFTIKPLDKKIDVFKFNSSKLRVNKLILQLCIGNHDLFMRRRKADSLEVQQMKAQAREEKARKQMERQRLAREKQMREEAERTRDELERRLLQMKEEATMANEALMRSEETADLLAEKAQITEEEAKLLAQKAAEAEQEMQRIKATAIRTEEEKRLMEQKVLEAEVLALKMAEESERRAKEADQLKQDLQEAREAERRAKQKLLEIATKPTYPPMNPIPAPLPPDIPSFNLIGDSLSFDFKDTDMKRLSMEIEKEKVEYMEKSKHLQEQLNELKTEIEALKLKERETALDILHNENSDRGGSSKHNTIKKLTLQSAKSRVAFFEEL
UniProt P62491: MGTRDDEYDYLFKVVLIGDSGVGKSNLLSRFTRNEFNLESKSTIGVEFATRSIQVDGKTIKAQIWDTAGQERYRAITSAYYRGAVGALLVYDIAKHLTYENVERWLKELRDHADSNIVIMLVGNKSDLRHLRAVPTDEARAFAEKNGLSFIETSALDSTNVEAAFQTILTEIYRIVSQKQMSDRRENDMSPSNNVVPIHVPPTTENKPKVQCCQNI
UniProt P46937: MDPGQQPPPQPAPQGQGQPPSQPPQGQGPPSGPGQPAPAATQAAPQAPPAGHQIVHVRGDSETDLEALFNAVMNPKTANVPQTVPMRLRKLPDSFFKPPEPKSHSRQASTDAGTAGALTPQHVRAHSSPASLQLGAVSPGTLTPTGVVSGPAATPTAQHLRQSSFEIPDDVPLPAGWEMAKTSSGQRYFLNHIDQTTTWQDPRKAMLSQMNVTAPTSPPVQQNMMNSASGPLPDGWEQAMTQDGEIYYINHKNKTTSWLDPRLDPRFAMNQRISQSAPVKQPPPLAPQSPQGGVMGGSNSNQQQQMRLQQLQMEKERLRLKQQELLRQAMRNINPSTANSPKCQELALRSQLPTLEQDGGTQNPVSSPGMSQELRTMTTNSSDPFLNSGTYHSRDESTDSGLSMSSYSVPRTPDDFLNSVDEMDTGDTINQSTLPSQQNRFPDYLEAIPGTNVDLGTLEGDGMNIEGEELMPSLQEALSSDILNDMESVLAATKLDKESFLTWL
UniProt Q9Y2J4: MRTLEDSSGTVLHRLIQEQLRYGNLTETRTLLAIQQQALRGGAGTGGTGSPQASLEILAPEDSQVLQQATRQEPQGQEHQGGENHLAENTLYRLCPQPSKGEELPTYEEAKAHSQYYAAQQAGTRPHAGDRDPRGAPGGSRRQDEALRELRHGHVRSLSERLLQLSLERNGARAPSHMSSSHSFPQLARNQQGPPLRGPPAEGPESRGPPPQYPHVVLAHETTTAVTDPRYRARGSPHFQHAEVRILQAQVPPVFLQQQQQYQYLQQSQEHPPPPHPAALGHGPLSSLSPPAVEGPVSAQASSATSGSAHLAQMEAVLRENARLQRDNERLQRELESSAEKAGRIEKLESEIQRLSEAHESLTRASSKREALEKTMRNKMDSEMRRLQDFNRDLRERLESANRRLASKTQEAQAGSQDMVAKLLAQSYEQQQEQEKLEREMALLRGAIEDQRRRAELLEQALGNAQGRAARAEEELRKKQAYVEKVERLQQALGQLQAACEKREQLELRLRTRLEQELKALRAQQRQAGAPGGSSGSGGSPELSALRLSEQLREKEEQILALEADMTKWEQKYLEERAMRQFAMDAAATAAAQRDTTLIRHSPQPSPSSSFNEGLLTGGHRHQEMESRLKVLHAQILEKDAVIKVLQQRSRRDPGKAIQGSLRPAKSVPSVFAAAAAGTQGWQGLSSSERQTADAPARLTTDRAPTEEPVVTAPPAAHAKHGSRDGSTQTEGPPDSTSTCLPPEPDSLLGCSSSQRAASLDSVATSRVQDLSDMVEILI
UniProt P35222: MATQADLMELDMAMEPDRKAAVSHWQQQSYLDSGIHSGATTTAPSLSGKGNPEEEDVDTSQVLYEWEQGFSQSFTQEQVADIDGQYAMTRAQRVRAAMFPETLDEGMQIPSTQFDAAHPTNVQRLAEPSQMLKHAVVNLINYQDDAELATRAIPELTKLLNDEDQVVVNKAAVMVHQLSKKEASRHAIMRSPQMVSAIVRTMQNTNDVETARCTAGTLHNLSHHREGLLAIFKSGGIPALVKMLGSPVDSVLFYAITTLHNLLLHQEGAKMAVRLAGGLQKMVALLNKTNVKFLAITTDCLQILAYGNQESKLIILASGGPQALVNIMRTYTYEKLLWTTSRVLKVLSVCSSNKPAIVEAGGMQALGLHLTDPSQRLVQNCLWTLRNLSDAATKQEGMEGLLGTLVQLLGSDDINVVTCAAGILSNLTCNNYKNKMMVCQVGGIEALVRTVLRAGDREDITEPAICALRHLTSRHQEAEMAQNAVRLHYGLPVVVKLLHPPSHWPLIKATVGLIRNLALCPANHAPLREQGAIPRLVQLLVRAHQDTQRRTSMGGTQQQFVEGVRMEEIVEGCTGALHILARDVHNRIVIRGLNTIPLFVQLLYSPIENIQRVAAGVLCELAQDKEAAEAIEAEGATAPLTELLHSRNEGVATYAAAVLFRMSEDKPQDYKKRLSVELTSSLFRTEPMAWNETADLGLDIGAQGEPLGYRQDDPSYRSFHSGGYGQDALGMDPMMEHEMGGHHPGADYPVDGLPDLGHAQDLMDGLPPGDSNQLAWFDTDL

Experiments:
[1] = molecular target: Merlin (human (endogenous in Caco-2)) (UniProt P35240); assay: co-IP; lysates of control and RAB11A-KD Caco-2 cells precipitated with anti-Merlin antibodies on Protein G-agarose, 6 h at 4 °C; blotted for the partners
[2] = molecular target: RAB11A (human (endogenous in Caco-2)) (UniProt P62491); assay: co-IP; total lysates of control and RAB11A-KD Caco-2 cells precipitated with anti-RAB11A antibody on Protein G-agarose, 6 h at 4 °C; blotted for YAP
[3] = molecular target: Yes-associated protein (YAP) (human (endogenous in Caco-2)) (UniProt P46937); assay: co-IP; lysates of control Caco-2 cells (also RAB11A-KD and Merlin-KD cells) precipitated with anti-YAP antibodies on Protein G-agarose, 6 h at 4 °C; blotted for the partners
[4] = molecular target: Yes-associated protein (YAP) (human (endogenous in Caco-2)) (UniProt P46937); assay: co-IP; lysates of Merlin-KD Caco-2 cells precipitated with anti-YAP antibodies; blotted for RAB11A
[5] = molecular target: Merlin (human (endogenous in Caco-2)) (UniProt P35240); assay: co-IP; immunoprecipitation and immunoblotting between AMOTL-2 and Merlin in control and RAB11A-KD Caco-2 cells; the precipitating antibody is not told
[6] = molecular target: Flag-wildtype RAB11A (UniProt P62491); assay: co-IP; lysates of HEK293 cells transfected with Flag-RAB11A (wildtype or dominant-negative) and HA-Merlin, precipitated on anti-FLAG affinity gel; HA-Merlin detected

binding [1]: binds | binding [2]: binds
Substance: Yes-associated protein (YAP) (from UniProt P46937 1-504)

binding [3]: binds
Substance: RAB11A (from UniProt P62491 1-216)
binding [4]: no binding (condition: Merlin-KD Caco-2 cells)

binding [2]: binds
Substance: YAP phosphorylated on S127 (from UniProt P46937 1-504)

binding [5]: binds | binding [3]: binds
Substance: AMOTL-2 (angiomotin-like protein 2) (from UniProt Q9Y2J4 1-779)

Substance: hemagglutinin (HA)-tagged Merlin (from UniProt P35240 1-595)
binding [6]: binds

binding [3]: binds
Substance: Merlin (from UniProt P35240 1-595)

binding [1]: binds
Substance: β-catenin (from UniProt P35222 1-781)
